According to PubChem BioAssay AID651820 (National Center for Advancing Translational Sciences (NCATS), 2012):
In all, about 340,000 compounds went through this assay and about 12,000 (3.5%) were called active. Inconclusive results, whose numbers are uncertain, are shown with a selection of clear calls. Calls follow the shape of the dose curve; as a rule, active = well fitted inhibition curve with a large enough effect; inconclusive = small, poorly fitted or top-dose-only effect, or another doubt; inactive = no such curve, though single readings can be large or run the other way. Potencies of inconclusive entries are left out as doubtful fits.
Potency is read from the fitted curve at half-maximal effect; tags tell the direction and shape of the fitted curve.

Test: qHTS Assay for Inhibitors of Hepatitis C Virus (HCV)
Conditions: Huh7.5.1 HCVcc-Cre (HCVcc is cell-culture hepatitis C virus) infection, luciferase reporter, 44 h; series mostly up to 41.8 µM
Summary of the method: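 1,000 cells/well; 4 h culture; + compound; + HCVcc-Cre (~0.5 moi); 44 h; luciferase substrate, RT 15 min; read 15 sec.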
In the case of `CN(C)CCNC(=O)c1cc2c(=O)n(C)c3ccccc3c2n1C`, the Potency is reported as inconclusive [inhibitor, single point].
In the case of `CCSc1nc(N2CCOCC2)c2ccccc2n1`, the Potency is reported as inconclusive [inhibitor, partial curve, poor fit].
In the case of `CCOc1cc(/C=N/Nc2nc3ccccc3[nH]2)cc(Br)c1OCC(=O)N(C)C`, the Potency is reported as inconclusive [inhibitor, partial curve].
In the case of `Cc1ccc2c(c1)C1CN(C)CCC1N2Sc1ccccc1[N+](=O)[O-]` (stereo unspecified), the Potency is reported as “inactive”.
For `CN(C)c1ccc(N=Nc2ccc(S(=O)(=O)O)cc2)c2ccccc12`, the Potency was “inactive”.
In the case of `CCN(CC)C1=NC(=[N+](CC)CC)c2ccccc21`, the Potency is reported as inconclusive [inhibitor, partial curve].
For `CCOc1ccc(C(=O)Nc2cccc3ncccc23)cc1Cl`, the Potency was inconclusive [inhibitor, single point].
In the case of `COc1cccc(C(=O)Nc2cc(C)nn2-c2ccccc2)c1OC`, the Potency is reported as “inactive”.
In the case of `COc1cccc(OC)c1C(=O)NC(=S)Nc1ccc2c(c1)Cc1ccccc1-2`, the Potency is reported as “inactive”.
In the case of `Cc1ccc(NC(=S)Nc2c(C)n(C)n(-c3ccccc3)c2=O)cc1`, the Potency is reported as “inactive”.
In the case of `CCCn1c(SCC(=O)N2c3ccc(F)cc3CCC2C)nnc1-c1ccccn1` (stereo unspecified), the Potency is reported as inconclusive [inhibitor, single point].
For `CCOC(=O)c1c(-c2ccccc2)csc1NC(=S)NC`, the Potency was “inactive”.
For `Brc1cccc(Cn2c(-c3cncs3)nc3ccccc32)c1`, the Potency was inconclusive [inhibitor, single point].
With `N#Cc1cc2sc3nnc(-c4ccncc4)n3c2cc1C#N` the Potency was inconclusive [inhibitor, partial curve].
With `CCOc1ccc(NC(=O)c2cccc3ccccc23)cc1` the Potency was inconclusive [inhibitor, partial curve, poor fit].
For `COc1ccccc1NC(=O)C(C)OC(=O)CN1C(=O)C2CC=CCC2C1=O` (stereo unspecified), the Potency was “inactive”.
For `CC1=C(C(=O)OCCNC(=O)c2ccccc2O)C(c2ccccc2[N+](=O)[O-])C(C(=O)OCC2CCCO2)=C(C)N1` (stereo unspecified), the Potency was inconclusive [inhibitor, single point].
With `CCOC(=O)Cc1nnc2c(Nc3ccc(Cl)cc3)nc3nonc3n12` the Potency was inconclusive [inhibitor, single point].
In the case of `Cc1c(NC(=O)CCCCCN2C(=O)C3C4C=CC(C4)C3C2=O)c(=O)n(-c2ccccc2)n1C` (stereo unspecified), the Potency is reported as “inactive”.
In the case of `Cc1oc(-c2ccc(F)cc2)nc1CN1CCCC(C(=O)N2CCOCC2)C1` (stereo unspecified), the Potency is reported as “inactive”.
In the case of `COC(=O)c1cc(COc2ccc3oc(C)c(C(=O)OC)c3c2)c(C)o1`, the Potency is reported as inconclusive [inhibitor, single point].
In the case of `COCc1ccc(C(=O)Nc2cccc(S(=O)(=O)N(C)c3ccccc3)c2)cc1`, the Potency is reported as active: 22.4 µM.
For `CCN(CC)c1ccc(N=Cc2c(O)n(CCc3ccc(OC)c(OC)c3)c(=O)[nH]c2=O)cc1`, the Potency was “inactive”.
For `CCN(Cc1ccc(N(C)C)cc1)C(C)C(=O)Nc1ccc(S(=O)(=O)N2CCCC2)cc1` (stereo unspecified), the Potency was inconclusive [inhibitor, single point].
For `CCO[C@H]1OC(C(=O)N2CCN(Cc3ccc4c(c3)OCO4)CC2)=C[C@@H](c2ccc(Br)cc2)[C@@H]1CCCO`, the Potency was inconclusive [inhibitor, partial curve].
With `CCn1nnc2cc(C(=O)NCCc3ccccc3F)ccc21` the Potency was “inactive”.
With `CCCc1nc(NCCO)c(C#N)c2c1CCCC2` the Potency was inconclusive [inhibitor, partial curve].
In the case of `CCCc1cc(C(=O)N/N=C/c2ccc(CC)s2)c2ccccc2n1`, the Potency is reported as inconclusive [inhibitor, full curve].
With `COc1ccc(NC(=O)c2ccc(-n3c(C)ccc3C)cc2)c(OC)c1` the Potency was inconclusive [inhibitor, full curve].
With `CC1OC(CC(=O)O)CC2=C1C(=O)c1c(O)cccc1C2=O` (stereo unspecified) the Potency was active: 0.562 µM.
With `CCOC(=O)CSc1nc2c([nH]c3ccccc32)c(=O)n1C` the Potency was “inactive”.
For `COc1ccc(C2SCC(=O)N2CCc2ccc(OC)c(OC)c2)cc1` (stereo unspecified), the Potency was active: 11.2 µM.
In the case of `O=C(OCC(=O)N1CCC(Cc2ccccc2)CC1)c1cccnc1Cl`, the Potency is reported as inconclusive [inhibitor, partial curve, poor fit].
In the case of `Oc1ccc(CNc2ccccc2F)c2cccnc12`, the Potency is reported as active: 11.2 µM.
In the case of `Cc1ccc2nc(SCc3nc4c(cnn4-c4ccccc4)c(=O)[nH]3)[nH]c2c1`, the Potency is reported as inconclusive [inhibitor, single point].
In the case of `CCOC(=O)C1=C(c2ccccc2)NC(N)=NC1c1ccc(OCc2ccc(Cl)cc2)c(OC)c1` (stereo unspecified), the Potency is reported as inconclusive [inhibitor, single point].
For `COc1ccc(CCN2CCCC(CN(C)Cc3cccc(OC)c3)C2)cc1` (stereo unspecified), the Potency was active: 7.94 µM.
With `Cn1c(N)nc2ccccc2c1=O` the Potency was “inactive”.
With `COc1ccc(N2CCN(c3oc(COc4ccccc4Cl)nc3C#N)CC2)cc1` the Potency was inconclusive [inhibitor, single point].
In the case of `O=[N+]([O-])c1ccc(OC/C=C2\Oc3ccc([N+](=O)[O-])cc3C2N2CCOCC2)cc1` (stereo unspecified), the Potency is reported as inconclusive [inhibitor, single point].
For `Cc1noc(C)c1S(=O)(=O)Nc1ccc2c(c1)C(=O)N([C@H](C)CO)C[C@H](C)[C@@H](CN(C)C(=O)Nc1ccccc1)O2`, the Potency was “inactive”.
With `CN(C)S(=O)(=O)c1cccc(NC(=O)c2ccc(N3CCCC3=O)cc2)c1` the Potency was active: 22.4 µM.
With `CCn1c(=O)c(=O)[nH]c2cc(C(=O)Nc3ccc(S(=O)(=O)N4CCCC4)cc3)ccc21` the Potency was inconclusive [inhibitor, partial curve].
In the case of `COC(=O)c1c(NC(=O)CCNCc2ccco2)sc2c1CCC2`, the Potency is reported as inconclusive [inhibitor, partial curve].
For `COc1ccc(-n2c(=S)[nH]c3cc(C(=O)Nc4ccc(C)c(F)c4)ccc3c2=O)c(OC)c1`, the Potency was active: 11.2 µM.
In the case of `CCOC(=O)N1CCC(NC(=O)c2ccc3c(c2)N(CC)CCS3)CC1`, the Potency is reported as inconclusive [inhibitor, single point].
